T1: human LRRC15 expressed on cells (human, UniProt Q8TF66 22-581)
T1 sequence (looked up): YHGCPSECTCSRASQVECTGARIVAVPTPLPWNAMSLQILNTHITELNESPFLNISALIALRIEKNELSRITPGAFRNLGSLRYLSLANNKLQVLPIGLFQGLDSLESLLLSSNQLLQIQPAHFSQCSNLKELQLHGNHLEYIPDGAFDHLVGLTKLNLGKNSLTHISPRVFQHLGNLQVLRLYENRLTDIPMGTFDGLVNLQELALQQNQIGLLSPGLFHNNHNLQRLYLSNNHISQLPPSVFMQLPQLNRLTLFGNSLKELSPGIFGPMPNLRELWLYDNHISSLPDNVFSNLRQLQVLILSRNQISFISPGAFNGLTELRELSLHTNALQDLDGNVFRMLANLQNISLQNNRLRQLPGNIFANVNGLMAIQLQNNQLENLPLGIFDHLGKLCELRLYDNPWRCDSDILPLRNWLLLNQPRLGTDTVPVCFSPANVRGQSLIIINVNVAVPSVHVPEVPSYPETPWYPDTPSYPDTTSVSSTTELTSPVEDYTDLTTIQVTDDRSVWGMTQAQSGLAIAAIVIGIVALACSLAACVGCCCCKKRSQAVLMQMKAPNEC


Molecular target: T1, human LRRC15 expressed on cells
Experiment: cell-based or functional assay

Binder | IC50 (kBq/ml), cell viability, Cell Titer Glo, HT29-LRRC15 [kBq/ml] | IC50 (kBq/ml), cell viability, Cell Titer Glo, Saos-2 [kBq/ml]
LRRC15-TTC (TPP-17078) (other, as for the heavy chain; sites not stated; 3,2-HOPO chelator coupled by amide bonds (NHS/EDC; lysine ε-amino groups), complexed with thorium-227; sites not stated) heavy: EVQLVQSGAEVKKPGASVKVSCKASGYKFSSYWIEWVKQAPGQGLEWIGEILPGSDTTNYNEKFKDRATFTSDTSINTAYMELSRLRSDDTAVYYCARDRGNYRAWFGYWGQGTLVTVSS[human IgG1 constant region omitted] light: DIQMTQSPSSLSASVGDRVTITCRASQSISSYLNWYQQKPGGAPKFLIYYASSLQSGVPSRFSGSGSGTDYTLTISSLQPEDFATYYCQQGFSLPWTFGGGTKVEIKRTVAAPSVFIFPPSDEQLKSGTASVVCLLNNFYPREAKVQWKVDNALQSGNSQESVTEQDSKDSTYSLSSTLTLSKADYEKHKVYACEVTHQGLSSPVTKSFNRGEC | 0.09 | 0.3
LRRC15-TTC (TPP-17421) (other, as for the heavy chain; sites not stated; 3,2-HOPO chelator coupled by amide bonds (NHS/EDC; lysine ε-amino groups), complexed with thorium-227; sites not stated) heavy: EVQLVQSGAEVKKPGASVKVSCKASGYKFSSYWIEWVKQAPGQGLEWIGEILPGSDWTNYNEKFKDRATFTSDTSINTAYMELSRLRSDDTAVYYCARDRGNYRAWFQYWGQGTLVTVSS[human IgG1 constant region omitted] light: DIQMTQSPSSLSASVGDRVTITCRASQSISSYLNWYQQKPGGAPKFLIYYASSLQSGVPSRFSGSGSGTDYTLTISSLQPEDFATYYCQQGLELPWTFGGGTKVEIKRTVAAPSVFIFPPSDEQLKSGTASVVCLLNNFYPREAKVQWKVDNALQSGNSQESVTEQDSKDSTYSLSSTLTLSKADYEKHKVYACEVTHQGLSSPVTKSFNRGEC | 0.1 | 0.34

From patent publication US20240108766A1 (Bayer, published 2024)
